According to PubChem BioAssay (NCATS):
“And” between values parts separate entries of the source, which are not always exact repeats. Equal entries are not always repeated. The inconclusive results got no clear call from the source; some entries with a clear call stand among them for comparison. For some of these results: Potencies beside an inconclusive call are fits to weak or partial responses and may not hold up. The source made the active and inactive calls. Calls come from the whole dose curve; as a rule, active = well fitted curve in the direction sought with a large enough effect; inconclusive = small, poorly fitted or top-dose-only effect, or another doubt; inactive = no such curve, though single readings can be large; an effect the other way counts as inactive or inconclusive.

Experiments:
[1] = Viability qHTS for spleen associated tyrosine kinase inhibitor (SYKi) naive MV4-11 cells (AID 1963823); conditions: MV4-11 AML viability, CellTiter-Glo luminescence, 72 h; viability (% of control): at 45 µM (top of the series); note: nearly all actives have a fitted effect of over 40% in size; note: potency is the fitted concentration of half-maximal effect
Outline: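 SYKi-naive MV4-11 AML cells, 500 per well, were exposed to library compounds for 72 hr at 37 C, 5% CO2. Viability was then read by CellTiter-Glo luminescence after 10 min at room temperature.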

[2] = Quantitative highthroughput screen to assess conditional lethalithy of NOMO1 cells grown in RPMI1640 with untreated serum (RPMI+s) (AID 1963876); conditions: NOMO1 AML cells in RPMI+serum, CellTiter-Glo viability, 48 h; viability: at 45.8 µM (top of the series); note: nearly all actives have a fitted effect of over 35% in size; note: potency is the fitted concentration of half-maximal effect;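 for Viability: 100% = DMSO wells and 0% = empty wells without cells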
Outline: (§1)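 Each medium arm—HPLM with 10% dialyzed FBS, or RPMI1640 with 5 mM glucose and 10% untreated or dialyzed FBS—was screened against an 11-point, 3-fold compound titration for 48 h at 37 °C, with CellTiter-Glo luminescence as endpoint.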

[3] = Quantitative highthroughput screen to assess conditional lethalithy of NOMO1 cells grown in RPMI1640 with dialyzed fetal bovine serum (RPMI+ds) (AID 1963877); conditions: NOMO1 in RPMI+dialyzed FBS viability, ATP luminescence, 48 h; series mostly up to 45.8 µM; note: nearly all actives have a fitted effect of over 30% in size; note: potency is the fitted concentration of half-maximal effect;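 for Viability: 100% = DMSO control wells and 0% = empty wells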
Outline: as §1

[4] = Quantitative highthroughput screen to assess conditional lethalithy of NOMO1 cells grown in Human Plasma-Like Medium with dialyzed fetal bovine serum (HPLM+ds) (AID 1963878); conditions: NOMO1 AML cells in HPLM+ds, CellTiter-Glo viability, 48 h; viability: at 45.8 µM (top of the series); note: nearly all actives have a fitted effect of over 35% in size; note: potency is the fitted concentration of half-maximal effect;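 for Viability: 100% = DMSO wells and 0% = empty wells on each plate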
Outline: as §1

[5] = Quantitative highthroughput screen to assess conditional lethalithy of P12 Ichikawa cells grown in Human Plasma-Like Medium with dialyzed fetal bovine serum (HPLM+ds) (AID 1963879); conditions: ATP luminescence, 48 h; Potency: viability; series mostly up to 45.8 µM; note: nearly all actives have a fitted effect of over 35% in size; note: potency is the fitted concentration of half-maximal effect
Outline: as §1

[6] = Quantitative highthroughput screen to assess conditional lethalithy of P12 Ichikawa cells grown in RPMI1640 with dialyzed fetal bovine serum (RPMI+ds) (AID 1963880); conditions: ATP luminescence, 48 h; Potency: P12-Ichikawa viability; series mostly up to 45.8 µM; note: nearly all actives have a fitted effect of over 35% in size; note: potency is the fitted concentration of half-maximal effect;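 for Viability: 100% = DMSO wells and 0% = empty wells on each plate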
Outline: as §1

[7] = Quantitative highthroughput screen to assess conditional lethalithy of P12 Ichikawa cells grown in RPMI1640 with untreated serum (RPMI+s) (AID 1963881); conditions: ATP luminescence, 48 h; Potency: viability; series mostly up to 45.8 µM
Outline: as §1

[8] = Quantitative highthroughput screen to assess conditional lethalithy of SEM cells grown in Human Plasma-Like Medium with dialyzed fetal bovine serum (HPLM+ds) (AID 1963882); conditions: SEM B-ALL cells in HPLM+ds, CellTiter-Glo viability, 48 h; series mostly up to 45.8 µM
Outline: as §1

[9] = Quantitative highthroughput screen to assess conditional lethalithy of SEM cells grown in RPMI1640 with unreated serum (RPMI+s) (AID 1963883); conditions: SEM B-ALL cells, CellTiter-Glo viability, 48 h; viability: at 45.8 µM (top of the series); note: nearly all actives have a fitted effect of over 35% in size; note: potency is the fitted concentration of half-maximal effect;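 for Viability: 100% = DMSO wells and 0% = empty wells without cells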
Outline: as §1

[10] = Quantitative highthroughput screen to assess conditional lethalithy of SEM cells grown in RPMI1640 with dialyzed fetal bovine serum (RPMI+ds) (AID 1963884); conditions: SEM B-ALL cells, RPMI+dialyzed FBS, CellTiter-Glo viability, 48 h; viability: at 45.8 µM (top of the series)
Outline: as §1

[11] = Cellular viability qHTS for adrenocortical cancer (ACC) cell line NCI-H295R (AID 1963990); conditions: CellTiter-Glo ATP luminescence, 48 h; activity change, negative = viability loss: at 46.1 µM (top of the series); note: potency is the fitted concentration of half-maximal effect; nearly all actives have a fitted effect of over 60% in size
Outline: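 CellTiter-Glo ATP luminescence, read 48 h after compound addition, measured viability of NCI-H295R adrenocortical cells grown serum-free with ITS. Final concentrations spanned up to 46 uM. Data normalized to DMSO and doxorubicin, fitted for IC50 and maximal response.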

[12] = Cellular viability qHTS for adrenocortical cancer (ACC) cell line SW-13 (AID 1963989); conditions: SW-13 ACC cells viability, CellTiter-Glo, 48 h; activity (max response): hits give low values; note: potency is the fitted concentration of half-maximal effect; nearly all actives have a fitted effect of over 65% in size
Outline: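 Viability was read as CellTiter-Glo luminescence after 48 h compound treatment (up to 46 uM final) of SW-13 cells grown serum-free; titration curves were fit with a four-parameter logistic model to give IC50 and efficacy.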

[13] = Viability qHTS for spleen associated tyrosine kinase inhibitor (SYKi) drug resistant MV4-11 cells (AID 1963824); conditions: SYKi-resistant MV4-11 viability, CellTiter-Glo, 72 h; series mostly up to 45 µM; note: nearly all actives have a fitted effect of over 35% in size
Outline: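 CellTiter-Glo luminescence, read 10 min after reagent addition, reports viability after a 72 hr compound exposure. Cells are an MV4-11 line made resistant to SYK inhibition, seeded at 500 per well onto compound-containing plates.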
Tags give direction and shape of the fitted curve.

## COc1cc(N2CCC(N3CCN(C)CC3)CC2)ccc1Nc1ncc(Cl)c(Nc2ccccc2S(=O)(=O)C(C)C)n1
[1]
  Potency: active: 92 nM and active: 148 nM
[2]
  Potency: inconclusive: 1320 nM [cytotoxic, full curve, poor fit]
[3]
  Potency: inconclusive: 1660 nM [cytotoxic, full curve, poor fit]
[4]
  Potency: inconclusive: 2960 nM [cytotoxic, full curve, poor fit]
[5]
  Potency: inconclusive: 2350 nM [cytotoxic, full curve]
[6]
  Potency: inconclusive: 2960 nM [cytotoxic, full curve, poor fit]
[7]
  Potency: inconclusive: 2090 nM [cytotoxic, full curve, poor fit]
[8]
  Potency: inconclusive: 1180 nM [cytotoxic, full curve, poor fit]
[9]
  Potency: inconclusive: 833 nM [cytotoxic, full curve, poor fit]
[10]
  Potency: inconclusive: 1050 nM [cytotoxic, full curve]
[11]
  Potency: active: 1120 nM

## CCc1nc(C(N)=O)c(Nc2ccc(N3CCC(N4CCN(C)CC4)CC3)c(OC)c2)nc1NC1CCOCC1
[1]
  Potency: active: 9 nM and active: 18.6 nM
[2]
  Potency: inconclusive: 3710 nM [cytotoxic, full curve]
[3]
  Potency: inconclusive: 1860 nM [cytotoxic, full curve]
[4]
  Potency: inconclusive: 4670 nM [cytotoxic, full curve]
[5]
  Potency: inconclusive: 16600 nM [cytotoxic, partial curve]
[6]
  Potency: inconclusive: 16600 nM [cytotoxic, partial curve]
[7]
  Potency: inconclusive: 14800 nM [cytotoxic, partial curve]
[8]
  Potency: inconclusive: 295 nM [cytotoxic, full curve]
[9]
  Potency: active: 295 nM
[11]
  Potency: active: 2820 nM

## CCCNS(=O)(=O)Nc1ncnc(OCCOc2ncc(Br)cn2)c1-c1ccc(Br)cc1
[1]
  Potency: inconclusive: 37.2 µM [cytotoxic, single point]
[2]
  Potency: inactive
[3]
  Potency: inactive
[4]
  Potency: inactive
[5]
  Potency: inactive
[6]
  Potency: inactive
[7]
  Potency: inconclusive: 37200 nM [cytotoxic, single point]
[9]
  viability: inconclusive: 68% [cytotoxic]
[10]
  Potency: inconclusive: 7430 nM [rising, single point]
[12]
  Potency: inconclusive: 35500 nM [cytotoxic, partial curve, poor fit]

## NS(=O)(=O)c1cc2c(cc1Cl)NC(CSCc1ccccc1)=NS2(=O)=O
[1]
  Potency: inactive
[13]
  Potency: inactive
[11]
  Potency: inconclusive: 32600 nM [cytotoxic, single point]
